B1: chr5:10679541:10679642:-|3pUTR|ENSG00000112977|msi1|total|mutant (ssRNA)
RNA: GGGAGUUCUACAGUCCGACGAUCCUUCAAGGCCCUGUCACCACCUAUUUCCUGAUCAGUUGGUAUAAACUGAGGGUGGCUUUCCGAGACCCAGACUUGGUUGGCAGCGCUGCCAUGGAACACCCCAGCAAGCACCUCCCAGCCCAACAGAGGAUUGAGCAUCA
B2: chr12:57010726:57010903:-|three_prime_utr|ENSG00000166863|control|control|control (ssRNA)
RNA: GGGAGUUCUACAGUCCGACGAUCGAGGGACCCAUAAUUGCAGCUUUCAUAAUCUUACCAUUGAGGGAGCAUUCCCAACCUGUUAGGUGUCAGGCAGAAUAGGACAUAAGGUUUCUGGGAGCUGGCAUUUAAAGAUUAGAUGAGCAACAGAGGAUUGAGCAUCA
B3: chr3:45095346:45095568:-|CDS|ENSG00000163814|control|control|control (ssRNA)
RNA: GGGAGUUCUACAGUCCGACGAUCAAACAGAGCCGCAAGUUUGUCCCUGGCUGUUUCGUGUGUCUAGAAUCUCGGACCUGCAGUAGCAACCUCACCCUGACAUCUGGCUCCAAACACAAAAUCUCCUUCCUUUGUGAUGAUCUGCAACAGAGGAUUGAGCAUCA
B4: chr11:107429260:107429366:-|CDS|ENSG00000152404|unk|FALSE|unique (ssRNA)
RNA: GGGAGUUCUACAGUCCGACGAUCGAGGAAACCCACAUAUUCAGAUAAAGCACAAAAUUGUCAAGAAAGUAGAGAAUCAGACUUAGUAAAAUAUGGUAACAGUUCAAGGGAUAGAUAUGCUACAACAGAUACUGCAAAAAAUAGCAACAGAGGAUUGAGCAUCA
B5: chr10:87814449:87814585:-|CDS|ENSG00000138138|unk|FALSE|bound_elsewhere (ssRNA)
RNA: GGGAGUUCUACAGUCCGACGAUCUUUAAUUUUCCGUUUGACAAUAUUUGGUGCAGUGACAUACUUUACUAUCAAAUGGAUGGUAGAUGCAAUUGAUCCAACCAGAAAGCAAAAAGUAGAAGCUCAGAAACAGGUAUGAUUGAACAACAGAGGAUUGAGCAUCA
B6: chr15:42943230:42943331:-|3pUTR|ENSG00000159459|msi1|total|mutant (ssRNA)
RNA: GGGAGUUCUACAGUCCGACGAUCAUUAUGCUUAUGAAGUUUACUUACAAACAAGCAACUGAGUCACUUUAUUUUCUUCCGUGCCGUAUGUGAAGGCACUGGUUCAACAGGAUGGCUCCAGAACUGUGUUUUUCUAAUGUUUGGCAACAGAGGAUUGAGCAUCA
B7: chr4:41013971:41014072:-|CDS|ENSG00000163697|msi1|total|mutant (ssRNA)
RNA: GGGAGUUCUACAGUCCGACGAUCGCAGGACCCCAACAAAAACCUGAGCCCCACUGCAGUCAUCAACAUAACUUCUGAGAAGUCCGAGGGUAAAGAGCCCCACCCACAGGAUUCCUCGAGCUGUGAGAUUUUACCCUCCCAGCCCAACAGAGGAUUGAGCAUCA
B8: chr15:90501451:90501552:+|3pUTR|ENSG00000140575|msi1_unk|FALSE|overlapping (ssRNA)
RNA: GGGAGUUCUACAGUCCGACGAUCCUGAGCCUCUAUUUUCUUUCUUUGAUGUUUUGAUUCAGUAUUCUUUUAUCAUAAAUUUUUAGCAUUUAAAAAUUCACUGAUGUACAUUAAGCCAAUAAACUGCUUUAAUGAAUAACAAACCAACAGAGGAUUGAGCAUCA
B9: chr14:106324253:106324560:-|CDS|ENSG00000211952|control|control|control (ssRNA)
RNA: GGGAGUUCUACAGUCCGACGAUCCUAUUAUAGUGGGAGCACCUACUACAACCCGUCCCUCAAGAGUCGAGUCACCAUGUCAGUAGACACGUCCAAGAACCAGUUCUCCCUGAAGCUGAGCUCUGUGACCGCCGUGGACACGGCCAACAGAGGAUUGAGCAUCA
B10: chr4:143221337:143221438:+|3pUTR|ENSG00000170185|unk|total|mutant (ssRNA)
RNA: GGGAGUUCUACAGUCCGACGAUCUUGAAAGGUAACCGAUUUUCCAGAAGUAAAAUCUGAUGGUUCUAAAUCAAUCAAUGUGACCGUUCAUUUUUAACUCUCCGAAGAAUUCAGAGGAAAUUAACCCAGCUAAGUAAAAAAUCUCAACAGAGGAUUGAGCAUCA
B11: ENSG00000104643:stop:overlap|stop_codon|ENSG00000104643|stop_codon|NA|stop_codon (ssRNA)
RNA: GGGAGUUCUACAGUCCGACGAUCAUAUUCCUGGAAUGGAGGAAUGCUUGAAUAUAGCCAGUUCCAUUGAGAAUCCCUCCUGCUAGCCCUCCACCCUUCCCCGAAUACAUCUGGACACGAUUUGCAUUGUCUACUCUGGACUCCCAACAGAGGAUUGAGCAUCA
B12: chr16:70160055:70160156:+|3pUTR|ENSG00000090857|msi1|total|mutant (ssRNA)
RNA: GGGAGUUCUACAGUCCGACGAUCUUGUGCUCACCACGAAGGAUGGUCUCUGCCUUCUCUUGUCGGUGUAUGCCAUCUGAACCCCGGAACACAAAGUAUAUUGGCCUCAAACGGAGACCCAGGGUUGCCAGUUUUCCGUGGGCCCAACAGAGGAUUGAGCAUCA
B13: chr8:18872320:18872424:-|CDS|ENSG00000156011|unk|FALSE|bound_elsewhere (ssRNA)
RNA: GGGAGUUCUACAGUCCGACGAUCGCCAGAAUCAUUUCCGGAACAUUACAGGCUACAAAGGUACUGGACCAAGAUGCUGUUUCUAGUUUUUCAGUUCAGCAGGUGGAAAAAGAGCUGGACACUGCCAGUCGUAAAACACAGAGACAACAGAGGAUUGAGCAUCA
B14: chrX:55006554:55006655:+|CDS|ENSG00000169188|unk|total|mutant (ssRNA)
RNA: GGGAGUUCUACAGUCCGACGAUCAGGGCGCAAGUGGAUGGACAGCUUGCUCAGUAACUUGGGGUGCCAGUCUGCCUCUCAUGCCGGGCCCUUCAUCGACCGCUACCGCUGCUUCCAACCAAAGCAGGAGGGGGCCUUCACCUGCAACAGAGGAUUGAGCAUCA

This is one part of the list.

The test addresses MSI1 full-length (mouse, UniProt Q61474 1-362). Briefly: nsRBNS (natural sequence RNA bind-n-seq); RBNS binding buffer (assumed for nsRBNS): 25 mM Tris pH 7.5, 150 mM KCl, 3 mM MgCl2, 0.01% Triton X-100, 500 ug/ml BSA, 20 U/ml SUPERase-In, 4 C; UNK is unkempt and MSI1 is Musashi-1; names of the RNAs are library labels; protein concentration not given here; high values mean tight binding.
UniProt Q61474, sequence (Q61474 whole entry): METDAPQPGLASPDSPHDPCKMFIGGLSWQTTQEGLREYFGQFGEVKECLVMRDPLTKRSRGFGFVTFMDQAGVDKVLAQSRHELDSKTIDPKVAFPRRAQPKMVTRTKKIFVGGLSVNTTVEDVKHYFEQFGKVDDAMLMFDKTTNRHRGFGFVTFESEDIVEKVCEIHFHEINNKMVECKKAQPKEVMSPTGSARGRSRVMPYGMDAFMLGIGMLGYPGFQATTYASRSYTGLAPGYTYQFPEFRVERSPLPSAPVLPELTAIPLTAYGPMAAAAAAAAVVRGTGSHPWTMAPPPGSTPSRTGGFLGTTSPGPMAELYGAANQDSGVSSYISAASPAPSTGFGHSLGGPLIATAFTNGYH
In turn, B1 gave a binding signal of 0.763 enrichment R.
The value for B2 was 0.899 enrichment R; that for B3 was 0.476 enrichment R.
Under B4 stands 8.95 enrichment R; under B5, 0.606 enrichment R; under B6, 0.237 enrichment R.
Under B7 stands 0.542 enrichment R.
Molecule B8 returned a binding signal of 0.987 enrichment R.
In turn, B9 registered a binding signal of 0.569 enrichment R.
The value for B10 was 0.392 enrichment R; that for B11 was 3.02 enrichment R.
Under B12 stands 0.294 enrichment R; under B13, 0.455 enrichment R.
Under B14 stands 0.438 enrichment R.

Source of the values: publication PMC12136788.
